Experimental findings from the antibiotic and cytotoxicity screens of Wong et al. (2023) are described below.

Structures are written as SMILES. Some of the results follow.

One test concerns HSkMC. Kind of test: cytotoxicity call (relative viability < 0.9). To be noted: 10 µM.
For a further test, the system named is HepG2. Kind of test: cytotoxicity call (relative viability < 0.9). To be noted: 10 µM.
In another test the test system is S. aureus RN4220. Kind of test: growth inhibition call (relative growth <= 0.2). Conditions: 50 µM.

`C[C@H]1CN([C@@H](C)CO)S(=O)(=O)c2ccc(C#Cc3cccnc3)cc2O[C@H]1CN(C)C(=O)Nc1ccc2c(c1)OCO2`: the cytotoxicity call with HSkMC and in the test on HepG2 was “inactive” in each case. Besides, the growth inhibition call in the test with S. aureus RN4220 is “inactive”.
For the compound `C[C@@H]1CN([C@H](C)CO)C(=O)c2cc(NC(=O)c3ccccc3)ccc2O[C@@H](C)CCCCO[C@H]1CN(C)Cc1ccc(Cl)c(Cl)c1`, in the test with HSkMC, the cytotoxicity call is “inactive”. Also, in the test with HepG2, the cytotoxicity call is “active”. For the same compound, the growth inhibition call in the test with S. aureus RN4220 is “inactive”.
Take `C[C@H]1CN([C@@H](C)CO)C(=O)c2cc(-c3cncnc3)cnc2O[C@H]1CN(C)C(=O)Nc1ccc2c(c1)OCO2`: the cytotoxicity call with HSkMC and in the test with HepG2 was “inactive” each time. In addition, the growth inhibition call with S. aureus RN4220 is “inactive”.
On to `C[C@@H]1CCCCO[C@@H](CN(C)C(=O)CCC(F)(F)F)[C@@H](C)CN([C@H](C)CO)C(=O)c2cc(NC(=O)Nc3ccc4c(c3)OCO4)ccc2O1`, for which the cytotoxicity call in the test on HSkMC and in the test with HepG2 was “inactive” in each case. In addition, the growth inhibition call in the test on S. aureus RN4220 was “inactive”.
As for `COc1ccccc1C#Cc1cnc2c(c1)C(=O)N([C@@H](C)CO)C[C@H](C)[C@@H](CN(C)S(=O)(=O)c1cn(C)cn1)O2`, the cytotoxicity call with HSkMC and in the test with HepG2 was “inactive” in each case. For the same compound, the growth inhibition call in the test on S. aureus RN4220 was “inactive”.
Consider `C[C@@H]1CN([C@H](C)CO)C(=O)c2cc(C#CC3(O)CCCC3)cnc2O[C@@H]1CN(C)C(=O)Nc1ccc2c(c1)OCO2`, for which the cytotoxicity call in the test with HSkMC and in the test with HepG2 was “inactive” each time. Moreover, in the test with S. aureus RN4220, the growth inhibition call was “inactive”.
Consider `CCCN(C)C[C@H]1OCCCC[C@H](C)Oc2ccc(NC(=O)CCC(F)(F)F)cc2C(=O)N([C@H](C)CO)C[C@@H]1C`, for which the cytotoxicity call with HSkMC and in the test on HepG2 was “inactive” throughout. Besides, the growth inhibition call in the test on S. aureus RN4220 was “inactive”.
Consider `C[C@@H]1CN([C@@H](C)CO)C(=O)c2cc(NS(C)(=O)=O)ccc2O[C@H]1CN(C)S(=O)(=O)c1cn(C)cn1`, for which the cytotoxicity call in the test on HSkMC and with HepG2 was “inactive” in each case. Also, in the test on S. aureus RN4220, the growth inhibition call was “inactive”.
Consider `CNC[C@@H]1OCCCC[C@H](C)Oc2ccc(NC(=O)Nc3cccc4ccccc34)cc2C(=O)N([C@@H](C)CO)C[C@H]1C`, for which the cytotoxicity call in the test on HSkMC (human skeletal muscle cells) and in the test with HepG2 was “inactive” in each case. In the test with S. aureus RN4220, the growth inhibition call was “inactive”.
